Data from publication PMC4336329 (PLoS ONE, 2015).
Screen size: about 310,000 compounds; about 14,000 (4.5%) showed an effect of 50% or more. The effect is printed as a negative number. The list shows a part of the results.

Molecular target: human ether-à-go-go-related gene (hERG) potassium channel (human, UniProt Q12809)
Test: primary screen, population patch clamp on CHO cells stably expressing hERG
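Also: peak tail current of the secondary pulse compared with the same well before compound.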

human ether-à-go-go-related gene (hERG) potassium channel, sequence (Q12809 whole entry, looked up): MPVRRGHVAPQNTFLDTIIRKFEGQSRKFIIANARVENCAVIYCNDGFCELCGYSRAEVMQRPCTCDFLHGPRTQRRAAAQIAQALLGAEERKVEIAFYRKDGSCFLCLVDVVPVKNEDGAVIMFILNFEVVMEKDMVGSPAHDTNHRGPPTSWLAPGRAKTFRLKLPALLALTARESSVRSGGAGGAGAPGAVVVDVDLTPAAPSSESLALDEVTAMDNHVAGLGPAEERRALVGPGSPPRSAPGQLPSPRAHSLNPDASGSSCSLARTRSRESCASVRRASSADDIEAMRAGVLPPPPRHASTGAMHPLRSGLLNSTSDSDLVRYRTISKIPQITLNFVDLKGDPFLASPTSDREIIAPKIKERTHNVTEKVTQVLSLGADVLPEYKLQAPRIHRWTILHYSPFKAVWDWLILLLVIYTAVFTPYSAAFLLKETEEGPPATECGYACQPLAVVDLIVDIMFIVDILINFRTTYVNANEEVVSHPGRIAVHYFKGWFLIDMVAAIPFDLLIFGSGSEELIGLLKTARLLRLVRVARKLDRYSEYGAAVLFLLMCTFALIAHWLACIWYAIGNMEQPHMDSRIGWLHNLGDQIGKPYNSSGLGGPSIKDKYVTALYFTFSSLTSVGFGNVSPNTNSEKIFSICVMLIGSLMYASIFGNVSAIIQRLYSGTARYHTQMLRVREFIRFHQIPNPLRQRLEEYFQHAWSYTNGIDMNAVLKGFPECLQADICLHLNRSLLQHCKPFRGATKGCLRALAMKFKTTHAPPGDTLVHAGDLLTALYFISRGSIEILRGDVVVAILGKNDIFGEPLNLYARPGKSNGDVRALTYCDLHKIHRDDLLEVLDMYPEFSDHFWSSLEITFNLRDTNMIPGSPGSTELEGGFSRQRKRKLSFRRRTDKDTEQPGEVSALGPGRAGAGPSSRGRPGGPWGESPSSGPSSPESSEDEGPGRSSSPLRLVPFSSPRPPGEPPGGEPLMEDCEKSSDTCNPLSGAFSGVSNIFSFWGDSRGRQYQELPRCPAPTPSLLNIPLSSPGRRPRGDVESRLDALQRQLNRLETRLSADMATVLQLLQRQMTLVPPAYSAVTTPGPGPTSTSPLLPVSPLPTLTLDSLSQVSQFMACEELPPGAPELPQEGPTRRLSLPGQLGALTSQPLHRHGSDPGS

In order of rising “hERG current change (%, negative = inhibition) at 10uM” value:
1. N=c1c(C(=O)NC2CCCC2)cc2c(=O)n3ccccc3nc2n1CC1CCCO1 (stereo not shown)  -83.7%
2. O=C(NCCCN1CCN(c2ccc(F)cc2)CC1)NC12CC3CC(CC(C3)C1)C2  -73.2%
3. CCOC(=O)C1CCN(C/C=C/c2ccccc2[N+](=O)[O-])CC1  -70.2%
4. O=C(NC(=O)c1cccc(F)c1)OC[C@@H]1CCCN2CCCC[C@H]12  -36.7%
5. CCOc1ccc(Oc2ccccc2NC(=O)C2=COCCO2)cc1  -22.2%
6. Cc1ccc(C(=O)N2CCN3C(=O)c4ccccc4C23c2ccc(Cl)cc2)cc1 (stereo not shown)  -18.4%
7. c1cncc(-c2nc(N3CCOCC3)c3ccccc3n2)c1  -17%
8. CN(C)CCN=Cc1c(O)n(Cc2ccc3c(c2)OCO3)c(=O)c2ccccc12  -13.8%
9. COc1ccc(OC)c(S(=O)(=O)N2CCC3(CC2)OCCN3S(=O)(=O)c2ccccc2)c1  -12.3%
10. Cc1ccc2nc(N/C(N)=N/S(=O)(=O)c3ccc([N+](=O)[O-])cc3)nc(C)c2c1  -11.6%
11. COc1ccc(-n2nc([N+](=O)[O-])c(=NCCC3=CCCCC3)n2O)cc1  -11.6%
12. COc1cccc2c1NC(C(=O)O)C1CC=CC21 (stereo not shown)  -10.5%
13. CC1Sc2ccc(S(=O)(=O)CCC(=O)N(C)Cc3ccco3)cc2NC1=O (stereo not shown)  -10.5%
14. Cc1ccc(OCCNC(=O)CCNS(=O)(=O)c2ccc3ccccc3c2)cc1  -3.64%
15. CS(=O)(=O)N(CC(=O)N1CCCCCC1)c1ccc(Br)cc1  -3.33%
16. COc1ccc(S(=O)(=O)N2CCC(C(=O)NCCC(=O)Nc3ccc(Cl)cc3)CC2)cc1  -1.39%
17. Cc1sc2nc(CN(Cc3cccs3)C(=O)NC3CCCCC3)[nH]c(=O)c2c1C  -0.79%
18. O=C(Nc1ccccc1N1CCCC1)c1cccnc1  -0.385%
19. CCOC(=O)CSCC(=O)Nc1cc(C)ccc1C  0.851%
20. COc1ccc(CCn2c(C)cc(C(=O)CN3C(=O)C(=O)N(Cc4ccco4)C3=O)c2C)cc1  1.28%
21. S=C(Nc1ccc2cn[nH]c2c1)Nc1ccc(Cl)cc1Cl  1.4%
22. O=C(Nc1nsc(-c2ccccc2)n1)c1ccncc1  3.75%
23. CCOC(=O)N(C)c1ccc(C(O)(C(=O)OC)C(F)(F)F)cc1 (stereo not shown)  3.91%
24. Cc1nnc(SCC(=O)N2CCN(C(=O)c3ccco3)CC2)n1C  4.11%
25. CS(=O)(=O)c1ccc([C@@H](O)[C@@H](CO)NC(=O)C(Cl)Cl)cc1  4.8%
26. O=C(Cn1nc(C(=O)O)c2ccccc2c1=O)NCCC1=CCCCC1  5.39%
27. CC(C)NC(=S)NC(=O)c1ccc(Cl)cc1Cl  6.37%
28. CCOC(=O)C1=C(CS(=O)(=O)c2ccc(C)c(C)c2)NC(=O)NC1c1ccc(O)cc1 (stereo not shown)  7.63%
29. Cc1ccccc1OCC(=O)N/N=C/c1sc(=O)n(Cc2cccc(C(=O)O)c2)c1Cl  7.97%
30. COc1ccc(C2SCC(=O)Nc3c2c(C)nn3-c2ccccc2)cc1OC (stereo not shown)  9.04%
31. COCc1nnc(NS(=O)(=O)c2ccc([N+](=O)[O-])cc2)s1  11.2%
32. COC(=O)CCCC1=CC2=C(c3ccccc3)C(=O)C(C)(OC(=O)C3CCCC3)C(=O)C2=CN1C(CO)CO (stereo not shown)  11.2%
33. O=C(NCc1cccc(Cl)c1)C1CCCO1 (stereo not shown)  12.9%
34. COc1ccc(OC)c(C(=O)N2CCC(CCC(=O)NC3CC3)CC2)c1  13.1%
35. CCNC(=S)N1CCN(c2nc(-c3ccc(F)cc3)cs2)CC1  13.3%
36. Cc1ccc2cc(C)c(SCC(=O)NCC3CCCO3)nc2c1 (stereo not shown)  14.4%
37. NS(=O)(=O)c1ccc(CCNC(=O)CNC(=O)c2ccccc2F)cc1  15.9%
38. NS(=O)(=O)c1ccc(NC(=S)N2CCc3ccccc32)cc1  19.6%
39. Cc1ccc(C)c(-n2c(CNC(=O)c3ccco3)nnc2SCC(=O)Nc2nnc(C)s2)c1  20.4%
40. Cc1cc(=O)oc2cc(OCC(=O)Nc3ccc4[nH]c(=O)[nH]c4c3)ccc12  22.7%
41. COc1ccccc1-c1cc(C(F)(F)F)nc(N2CCN(c3ccc(F)cc3)CC2)n1  23.7%
42. CCOc1ccc(N(CC(=O)NC2CC3CCC2C3)S(=O)(=O)c2ccccc2)cc1 (stereo not shown)  29.3%
43. Cc1ccc(C)c(CNC(=O)Nc2ccccc2)c1  29.5%
